Measured values taken from PubChem BioAssay AID588795 (National Center for Advancing Translational Sciences (NCATS), 2011).
Several values for one entry are separate records, joined by “and”; a condition that tells them apart may be missing. Equal entries are not always repeated. Screen size: about 390,000 compounds; about 1,400 (0.36%) were called active. Inconclusive means that the source gave no clear call. Such entries were picked first, then a sample of the others. Calls follow the shape of the dose curve; as a rule, active = well fitted inhibition curve with a large enough effect; inconclusive = small, poorly fitted or top-dose-only effect; inactive = no such curve, though single readings can be large or run the other way. A potency beside an inconclusive call is a rough fit, not a confirmed value.

Molecular target: Flap endonuclease 1 (Homo sapiens) (UniProt P39748)
Assay: qHTS Assay for the Inhibitors of Human Flap endonuclease 1 (FEN1). Also: nearly all actives have a fitted effect of over 65% in size.
Settings: Recombinant FEN1 flap cleavage, fluorescence, 15 min; series mostly up to 114 µM; activity change, negative = inhibition: at the top concentration
Summary of the method: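 Steps: FEN1 (10 nM) dispensed; compound added by pin tool; 15 min at room temperature; substrate added to 50 nM final; reads at 0 min and 15 min; data normalized and fitted (four-parameter Hill).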
% is scaled to controls: 0 for no effect and ±100 for the full control effect; potency is read from the fitted curve at half-maximal effect; tags tell the direction and shape of the fitted curve.

UniProt P39748, sequence (P39748 whole entry, looked up): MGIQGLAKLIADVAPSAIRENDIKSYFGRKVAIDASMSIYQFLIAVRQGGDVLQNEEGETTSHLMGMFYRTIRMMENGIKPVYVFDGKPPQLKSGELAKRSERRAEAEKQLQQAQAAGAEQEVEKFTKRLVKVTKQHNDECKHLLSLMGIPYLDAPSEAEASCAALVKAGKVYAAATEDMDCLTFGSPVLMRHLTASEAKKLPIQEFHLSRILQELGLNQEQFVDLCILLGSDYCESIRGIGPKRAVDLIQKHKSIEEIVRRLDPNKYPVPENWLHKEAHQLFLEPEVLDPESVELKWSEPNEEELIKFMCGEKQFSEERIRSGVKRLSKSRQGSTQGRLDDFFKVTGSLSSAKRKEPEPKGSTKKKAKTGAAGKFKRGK

| SMILES | activity change, negative = inhibition | Potency |
| --- | --- | --- |
| O=C1CN(C(=O)COc2ccc(Cl)cc2Cl)C(c2ccccc2)c2cc(F)ccc2N1 (centres undefined) | inactive: -2.35% | – |
| O=S(=O)(O)c1cccc(N=Nc2c(O)ccc3ccccc23)c1 | – | inconclusive: 31.6 µM [inhibitor, partial curve, poor fit] |
| COc1ccc2nc(SCc3nc(N)nc(Nc4ccccc4)n3)[nH]c2c1 | – | inconclusive: 79.4 µM [inhibitor, single point] |
| O=C(CCCN1C(=O)/C(=C\c2ccco2)SC1=S)Nc1ccc(O)cc1C(=O)O | – | active: 50.1 µM |
| COc1ccc(NC(=O)CSc2nc(O)cc(=O)n2C)cc1 | – | inconclusive: 79.4 µM [inhibitor, partial curve, poor fit] |
| CC(C)(C)c1nnc(NS(=O)(=O)c2ccc([N+](=O)[O-])cc2)s1 | inactive: 21.7% | – |
| CN(C)c1nc(NNC(=O)c2ccccc2)nc(N(C)C)n1 | inactive: -16.8% | – |
| O=c1c2ccccc2nc2c3ccccc3cnn12 | – | inconclusive: 25.1 µM [inhibitor, partial curve, poor fit] |
| S=c1[nH]nc(NCCCN2CCOCC2)s1 | – | inconclusive: 89.1 µM [inhibitor, single point] |
| C(=C\c1ccco1)/c1nc2ccccc2[nH]1 | inactive: -15.6% | – |
| O=C(Cn1c(=O)nc(-c2ccccc2)c2ccccc21)NCc1ccccc1Cl | inactive: -8.21% | – |
| COc1ccc(OC)c(NC(=O)CSc2nc3[nH]c(=O)[nH]c(=O)c3s2)c1 | – | inconclusive: 89.1 µM [inhibitor, single point] |
| c1ccc2c(c1)CCN(c1nc3cc4c(cc3s1)OCCO4)C2 | – | inconclusive: 89.1 µM [inhibitor, partial curve, poor fit] |
| CCCOc1ccc(CSc2nc3ccccc3[nH]2)cc1 | – | inconclusive: 89.1 µM [inhibitor, partial curve, poor fit] |
| Cc1noc(C)c1CCC(=O)N1CCCC(CCC(=O)NCc2ccc(F)c(F)c2)C1 (centres undefined) | – | inconclusive: 100 µM [inhibitor, single point] |
| CC(C)(Oc1ccc(Br)cc1)C(=O)Nc1cc(-c2nc3ccccc3[nH]2)ccc1Cl | inactive: 10.6% | – |
| NC(=O)COC(=O)c1cc(-c2ccco2)nc2ccccc12 | – | inconclusive: 39.8 µM [inhibitor, partial curve, poor fit] |
| COc1ccccc1CNC(=O)CN1N=C(c2ccccc2)CCC1=O | inactive: 19.1% | – |
| Cc1ccc(NC(=O)Cn2nc(Cc3ccncc3)c3ccccc3c2=O)c(Cl)c1 | – | inconclusive: 89.1 µM [inhibitor, single point] |
| Cc1cccc2c1-c1sc(C(=O)N(C)c3cccc(Cl)c3)cc1CO2 | inactive: -1.59% | – |
| CCN=c1scc(-c2ccco2)n1/N=C/c1ccc(OC)c(O)c1 | – | inconclusive: 89.1 µM [inhibitor, partial curve, poor fit] |
| Cc1nc(C/C(=N\Nc2ccccc2)c2ccc(O)cc2O)cs1 | – | inconclusive: 89.1 µM [inhibitor, partial curve, poor fit] |

| SMILES | activity change, negative = inhibition | Potency |
| --- | --- | --- |
| NC(=S)Nc1cccc2cc3ccccc3cc12 | – | inconclusive: 89.1 µM [inhibitor, partial curve, poor fit] |
| C=CCOC(=O)C1=C[C@@H](c2ccc3c(c2)OCO3)C[C@@H](OCc2ccc(CO)cc2)O1 | – | inconclusive: 79.4 µM [inhibitor, partial curve, poor fit] |
| COc1cccc(NC(=O)Cn2cc(C(=O)c3ccc(C)cc3)c(=O)c3cc(OC)ccc32)c1 | – | active: 79.4 µM |
| N=C1/C(=C\c2ccc(Br)o2)C(=O)N=C2SC(CC(=O)N3CCOCC3)=NN12 | – | inconclusive: 50.1 µM [inhibitor, partial curve] |
| COc1ccc(OC)c(/C=C2\Oc3cc(OCC(=O)N4CCC(C(=O)O)CC4)ccc3C2=O)c1 | – | inconclusive: 22.4 µM [inhibitor, full curve] |
| Cc1nnc(N2CCC(C(=O)NCCC(C)C)CC2)c2nn(-c3ccc(Cl)cc3)c(C)c12 | inactive: -5.42% | – |
| CCCCN(CCCNC(=O)c1cc(Nc2ccc(OC)c(OC)c2)nc2ccccc12)c1ccccc1 | – | inconclusive: 79.4 µM [inhibitor, partial curve, poor fit] |
| O=C(Nc1ccc2nc(-c3ccc(Br)o3)[nH]c2c1)c1cccs1 | – | inconclusive: 50.1 µM [inhibitor, partial curve, poor fit] |
| Cc1nn(-c2ccccc2)c(C)c1-c1cc(C(=O)N/N=C/c2ccc(O)cc2)[nH]n1 | – | inconclusive: 79.4 µM [inhibitor, partial curve, poor fit] |
| COc1ccc(CNc2nc(Cl)nc3nc[nH]c23)cc1 | – | inconclusive: 89.1 µM [inhibitor, single point] |
| Oc1cccc(C=Nc2cccc3ccccc23)c1O | – | inconclusive: 11.2 µM [inhibitor, full curve, poor fit] |
| Cc1ccc(Nc2c(-c3ccccn3)nc3cc(C)ccn23)cc1 | – | inconclusive: 89.1 µM [inhibitor, partial curve, poor fit] |
| CCc1ccc(NC(=O)CSc2nc(-c3cccc(OC)c3)nc3c2Cc2c(CO)cnc(C)c2O3)cc1 | inactive: 6.62% | – |
| COc1cc(NC(=O)c2ccc(N)nc2)cc(C(=O)Nc2cccc(C(F)(F)F)c2)c1 | – | inconclusive: 28.2 µM [inhibitor, full curve] |
| COc1ccc(-c2csc(NCCc3nc4cc(Cl)c(N5CCCCC5)cc4n3CCOCCO)n2)cc1 | – | inconclusive: 50.1 µM [inhibitor, partial curve, poor fit] |
| CC(C)C1N=C2c3ccccc3N=C(SCC(=O)c3ccc(O)c(O)c3)N2C1=O (centres undefined) | – | inconclusive: 44.7 µM [inhibitor, partial curve] |
| Nc1ncnc2c1ncn2[C@@H]1O[C@H](CO)[C@@H](O)[C@H]1O | – | inconclusive: 8.44 µM [inhibitor, single point] |
| CC1(C)CC(=O)C(=Cc2cn(CCC#N)nc2-c2ccc(Cl)cc2)C(=O)C1 | – | inconclusive: 89.1 µM [inhibitor, single point] |
| C[n+]1cc2c3c(ccc2c2ccc4cc5c(cc4c21)OCO5)OCO3 | – | active: 6.31 µM and active: 11.2 µM |
| CC(C)=NNc1ncnc2nc[nH]c12 | – | inconclusive: 44.7 µM [inhibitor, partial curve, poor fit] |
| COc1ccccc1-c1cc2nc(C)c(CCC(=O)NCCc3cccc(C)c3)c(C)n2n1 | inactive: -7% | – |
| Cc1cc(C)cc(NC(=O)c2ccc([N+](=O)[O-])o2)c1 | – | inconclusive: 50.1 µM [inhibitor, partial curve, poor fit] |

| SMILES | activity change, negative = inhibition | Potency |
| --- | --- | --- |
| Cc1ccc(CNC(=O)C2CC3Cn4c(nc5cc6ccccc6cc54)C3N2C)o1 (centres undefined) | inactive: 10.4% | – |
| CC(C)c1ccc(OCc2ccc(C(=O)N3CCN(c4ccccn4)CC3)cc2)cc1 | – | inconclusive: 79.4 µM [inhibitor, partial curve, poor fit] |
| CC(C)c1ccccc1NC(=O)CNCCc1ccc(C(F)(F)F)cc1 | – | inconclusive: 56.2 µM [inhibitor, partial curve, poor fit] |
| O=C(O)c1cccc(-c2ccc(/C=N/Nc3nn[nH]n3)o2)c1 | inactive: -15.5% | – |
| CCN(CC(=O)Nc1cc(C)on1)CC(=O)Nc1ccccc1C(F)(F)F | – | inconclusive: 89.1 µM [inhibitor, partial curve] |
| COC(=O)CCC(=O)N1CN2CN(C(=O)CCC(=O)OC)CC([N+](=O)[O-])(C2)C1 | – | inconclusive: 1.26 µM [inhibitor, full curve, poor fit] |
| O=C(N/N=C/c1ccc(-c2ccccc2C(=O)O)o1)c1cccs1 | – | inconclusive: 89.1 µM [inhibitor, single point] |
| C=CCSC1=Nc2cc(OC)c(OC)cc2C2=NC(=O)CN12 | – | inconclusive: 11.2 µM [inhibitor, partial curve] |
| Cc1ccc(NC(=O)N2CCN(c3nnc(C)c4c(C)n(-c5ccccc5)nc34)CC2)cc1Cl | – | inconclusive: 35.5 µM [inhibitor, partial curve, poor fit] |
| COc1ccc(C2CC(c3ccccc3)Oc3cc4c(cc32)OCO4)cc1 (centres undefined) | – | inactive and inconclusive: 100 µM [inhibitor, single point] |
| CCN(c1ccc(Cl)cc1)S(=O)(=O)c1nnc(NC(=O)C2CCCCC2)s1 | inactive: -0.665% | – |
| Cc1nnc(SCC2=C(C(=O)O)N3C(=O)C(NC(=O)Cn4nc(C(F)F)c(Cl)c4C)C3SC2)s1 (centres undefined) | inactive: 10.9% | – |
| CCCC[C@@H]1C[C@H]1[C@@H](NC(=O)c1ccccc1)c1ccccc1C(F)(F)F | inactive: -17.6% | – |
| Nc1nc(Br)c2c(F)cccc2c1-c1ccc(F)cc1 | – | inconclusive: 89.1 µM [inhibitor, partial curve, poor fit] |
| COc1ccc(C2NC(=O)c3c(sc4c3CCN(C)C4)N2)cc1O (centres undefined) | – | inconclusive: 17.8 µM [inhibitor, full curve] |
| COc1cc2c(cc1OC)C(C)N(C(=O)c1cc3c(s1)-c1ccccc1OC3)CC2 (centres undefined) | – | inconclusive: 11.2 µM [inhibitor, full curve, poor fit] |
| NC(=S)n1[nH]c(-c2ccc([N+](=O)[O-])cc2)c(N=Nc2ccc(Cl)cc2)c1=O | – | inconclusive: 70.8 µM [inhibitor, single point] |
| N#C/C(=C\c1c[nH]c2ccccc12)C(=O)c1ccc(O)c(O)c1 | – | active: 3.36 µM |
| CCc1ccc(/C=C2\Oc3cc(OC(=O)N4CCOCC4)ccc3C2=O)cc1 | – | inconclusive: 56.2 µM [inhibitor, partial curve, poor fit] |
| COc1ccc(NC(=O)c2ccc(-c3ccccc3C(F)(F)F)o2)cc1 | – | inconclusive: 50.1 µM [inhibitor, partial curve, poor fit] |
